Test results reported in paper PMC4577084.
Results are given in words; binding and its absence hold for the method and conditions named. Binding seen in cells or lysates may run through a third protein. Some entries that bind do so weakly or less than the wild type. Sequences can lack the tags named with a protein.

Tests used:
Assay in all cases: split reporter; BiFC: fusions with YFP N- or C-terminal half (pSPYNE-35S, pSPYCE-35S) co-introduced into the abaxial side of Nicotiana benthamiana leaves; imaged 48 h after co-infiltration; YFP fluorescence in nuclei
[1] = molecular target: T1, KNAT1/B…US (BP) fused with a half of YFP (BiFC) (Arabidopsis thaliana) (UniProt P46639)
T1 sequence: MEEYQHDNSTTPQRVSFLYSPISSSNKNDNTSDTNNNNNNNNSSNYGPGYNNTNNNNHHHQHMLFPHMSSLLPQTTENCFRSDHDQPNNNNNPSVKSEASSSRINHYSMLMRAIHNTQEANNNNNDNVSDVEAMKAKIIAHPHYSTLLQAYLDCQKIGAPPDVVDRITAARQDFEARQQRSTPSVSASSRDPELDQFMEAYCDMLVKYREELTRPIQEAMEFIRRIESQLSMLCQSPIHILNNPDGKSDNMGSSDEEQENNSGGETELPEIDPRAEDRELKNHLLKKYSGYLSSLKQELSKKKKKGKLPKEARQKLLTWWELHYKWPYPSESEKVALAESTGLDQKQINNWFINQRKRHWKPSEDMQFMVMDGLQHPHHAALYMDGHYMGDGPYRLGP

[2] = molecular target: T2, BLADE-ON-PETIOLE 2 (BOP2) fused with a half of YFP (BiFC) (Arabidopsis thaliana) (UniProt Q9ZVC2)
T2 sequence: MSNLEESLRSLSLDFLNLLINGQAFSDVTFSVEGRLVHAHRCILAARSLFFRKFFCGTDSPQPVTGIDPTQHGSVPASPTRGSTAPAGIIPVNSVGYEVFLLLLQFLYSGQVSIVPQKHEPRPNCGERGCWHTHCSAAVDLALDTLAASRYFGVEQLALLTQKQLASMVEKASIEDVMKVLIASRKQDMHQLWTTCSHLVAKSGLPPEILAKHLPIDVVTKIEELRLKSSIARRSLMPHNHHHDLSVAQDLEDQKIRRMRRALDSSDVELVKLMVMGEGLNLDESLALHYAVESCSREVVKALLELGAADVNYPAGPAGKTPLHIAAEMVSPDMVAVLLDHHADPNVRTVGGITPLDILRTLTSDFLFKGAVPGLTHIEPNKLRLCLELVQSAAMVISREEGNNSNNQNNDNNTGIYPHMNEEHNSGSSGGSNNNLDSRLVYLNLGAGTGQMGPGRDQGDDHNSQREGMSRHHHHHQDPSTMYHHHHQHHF

[3] = molecular target: T3, PINHEAD (PNH) fused with a half of YFP (BiFC) (Arabidopsis thaliana) (UniProt Q9XGW1)
T3 sequence: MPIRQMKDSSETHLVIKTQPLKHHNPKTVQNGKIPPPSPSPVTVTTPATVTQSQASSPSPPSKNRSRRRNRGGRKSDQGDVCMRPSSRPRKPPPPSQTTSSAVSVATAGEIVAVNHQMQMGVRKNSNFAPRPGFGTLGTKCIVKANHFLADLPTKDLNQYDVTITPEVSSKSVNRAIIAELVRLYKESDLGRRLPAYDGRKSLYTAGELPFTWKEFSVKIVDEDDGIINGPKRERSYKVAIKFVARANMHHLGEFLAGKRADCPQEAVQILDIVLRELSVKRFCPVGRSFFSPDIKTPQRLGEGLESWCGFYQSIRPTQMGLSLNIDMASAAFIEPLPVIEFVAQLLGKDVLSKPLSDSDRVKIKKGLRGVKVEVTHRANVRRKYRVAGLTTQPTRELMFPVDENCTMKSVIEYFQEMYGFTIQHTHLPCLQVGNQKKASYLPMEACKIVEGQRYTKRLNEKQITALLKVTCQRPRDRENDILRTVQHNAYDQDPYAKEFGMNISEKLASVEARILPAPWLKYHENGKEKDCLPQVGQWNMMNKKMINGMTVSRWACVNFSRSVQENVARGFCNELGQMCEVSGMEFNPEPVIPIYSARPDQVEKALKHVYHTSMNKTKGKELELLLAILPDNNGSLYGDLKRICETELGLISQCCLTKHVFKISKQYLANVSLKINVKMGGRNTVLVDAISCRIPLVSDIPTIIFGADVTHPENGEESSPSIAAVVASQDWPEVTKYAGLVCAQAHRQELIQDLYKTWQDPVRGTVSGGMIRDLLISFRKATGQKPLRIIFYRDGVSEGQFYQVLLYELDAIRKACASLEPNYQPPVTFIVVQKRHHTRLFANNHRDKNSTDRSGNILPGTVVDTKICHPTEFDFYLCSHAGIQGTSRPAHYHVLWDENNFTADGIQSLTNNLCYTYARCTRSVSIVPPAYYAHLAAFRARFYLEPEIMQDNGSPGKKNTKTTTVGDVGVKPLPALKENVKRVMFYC

[4] = molecular target: T4, BLADE-ON-PETIOLE 1 (BOP1) fused with a half of YFP (BiFC) (Arabidopsis thaliana) (UniProt Q9M1I7)
T4 sequence: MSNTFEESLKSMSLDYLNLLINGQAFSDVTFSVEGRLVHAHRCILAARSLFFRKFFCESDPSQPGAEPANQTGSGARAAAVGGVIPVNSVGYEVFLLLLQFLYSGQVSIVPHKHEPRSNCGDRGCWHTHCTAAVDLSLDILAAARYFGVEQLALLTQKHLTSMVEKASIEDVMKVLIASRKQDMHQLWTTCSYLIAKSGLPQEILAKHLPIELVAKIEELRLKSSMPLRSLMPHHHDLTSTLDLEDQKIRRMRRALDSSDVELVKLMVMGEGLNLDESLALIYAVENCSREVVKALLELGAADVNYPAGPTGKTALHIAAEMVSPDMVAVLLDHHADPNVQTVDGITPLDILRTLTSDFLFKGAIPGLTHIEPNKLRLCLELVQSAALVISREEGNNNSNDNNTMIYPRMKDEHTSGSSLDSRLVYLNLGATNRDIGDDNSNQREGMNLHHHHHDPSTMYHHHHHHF

[5] = molecular target: T5, JAGGED (JAG) fused with a half of YFP (BiFC) (Arabidopsis thaliana) (UniProt Q6S591)
T5 sequence: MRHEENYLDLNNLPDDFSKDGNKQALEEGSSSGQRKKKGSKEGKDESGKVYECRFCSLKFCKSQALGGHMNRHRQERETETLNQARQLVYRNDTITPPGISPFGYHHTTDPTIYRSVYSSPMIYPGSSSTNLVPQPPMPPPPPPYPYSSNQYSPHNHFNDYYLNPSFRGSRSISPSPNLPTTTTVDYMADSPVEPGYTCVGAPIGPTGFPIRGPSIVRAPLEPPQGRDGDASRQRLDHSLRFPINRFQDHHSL

B1: HANABA TARANU (HAN) fused with a half of YFP (BiFC) (protein, UniProt Q8LC79 1-295)
chain: MMQTPYTTSTQGQYCHSCGMFHHHSQSCCYNNNNNSNAGSYSMVFSMQNGGVFEQNGEDYHHSSSLVDCTLSLGTPSTRLCEEDEKRRRSTSSGASSCISNFWDLIHTKNNNSKTAPYNNVPSFSANKPSRGCSGGGGGGGGGGGGDSLLARRCANCDTTSTPLWRNGPRGPKSLCNACGIRFKKEERRTTAATGNTVVGAAPVQTDQYGHHNSGYNNYHAATNNNNNNGTPWAHHHSTQRVPCNYPANEIRFMDDYGSGVANNVESDGAHGGVPFLSWRLNVADRASLVHDFTR
[1]
  binding: no binding
[2]
  binding: no binding
[3]
  binding: binds
[4]
  binding: no binding
[5]
  binding: binds
